Source: PubChem BioAssay AID651820 (National Center for Advancing Translational Sciences (NCATS), 2012)
In all, about 340,000 compounds went through this assay and about 12,000 (3.5%) were called active. Inconclusive means that the source gave no clear call. Such entries were picked first, then a sample of the others. Calls follow the shape of the dose curve; as a rule, active = well fitted inhibition curve with a large enough effect; inconclusive = small, poorly fitted or top-dose-only effect, or another doubt; inactive = no such curve, though single readings can be large or run the other way. No potency is given beside an inconclusive call; the fits are too rough.

test: qHTS Assay for Inhibitors of Hepatitis C Virus (HCV); details: Huh7.5.1 HCVcc-Cre (HCVcc is cell-culture hepatitis C virus) infection, luciferase reporter, 44 h; activity change, negative = inhibition: at 41.8 µM (top of the series) unless noted
Summary of the method: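 Cells (1,000/well) were plated 4 h before compound, then infected with HCVcc-Cre virus (~0.5 moi). After 44 h further culture, infection was read as luciferase luminescence following a 15 min substrate incubation at room temperature.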
% is scaled to controls: 0 for no effect and ±100 for the full control effect; potency is read from the fitted curve at half-maximal effect; tags tell the direction and shape of the fitted curve.

Row | Structure (SMILES) | Potency | activity change, negative = inhibition
1 | O=C(c1ccc(Cl)c([N+](=O)[O-])c1)N(Cc1cccc(Cl)c1)C1CCS(=O)(=O)C1 (stereo unspecified) | inconclusive [inhibitor, single point] | 
2 | Cc1cc(-c2cccc([N+](=O)[O-])c2)nc2ccccc12 | inconclusive [inhibitor, single point] | 
3 | COc1ccc(-c2csc(NC(=O)Cc3ccccc3)n2)cc1OC | inconclusive [inhibitor, partial curve] | 
4 | Cc1cc([N+](=O)[O-])ccc1NCc1ccc2c(c1)OCCO2 | active: 10 µM | 
5 | CC1=CC(C)(C)N(C(=O)CSc2nnc(N)s2)c2cc(C)c(C)cc21 | inconclusive [inhibitor, partial curve] | 
6 | O=C(c1cc(-c2ccc(F)cc2)on1)N1CCCc2ccccc21 | inconclusive [inhibitor, single point] | 
7 | c1ccc(Nc2ccc(-n3ccnc3)nn2)cc1 |  | inactive: 11%
8 | CCOCCN1CCN(c2c(CC)c(C)nc3cc(-c4cc(OC)cc(OC)c4)nn23)CC1 | inconclusive [inhibitor, partial curve] | 
9 | O=C1CSC(=S)N1c1cccc(O)c1 |  | inactive: -1.73%
10 | COc1cc2nc(N(CCCN(C)C)C(=O)c3ccc(S(=O)(=O)N4CCc5ccccc54)cc3)sc2cc1OC |  | inconclusive: -84.1% [inhibitor]
11 | CN(C)CCCNC(=O)c1ccc(Cl)c(S(=O)(=O)N2CCCCCC2)c1 | inconclusive [inhibitor, partial curve, poor fit] | 
12 | CC1CCC(NC(=O)CN(C)S(=O)(=O)c2cccc3cccnc23)CC1 (stereo unspecified) | inconclusive [inhibitor, single point] | 
13 | Cc1ccc(NC(=S)NNc2ncc(C(F)(F)F)cc2Cl)c(C)c1 | inconclusive [inhibitor, partial curve] | 
14 | Cc1ccc(-c2nn3c(C)nnc3c3ccccc23)cc1S(=O)(=O)NC(C)c1ccccc1 (stereo unspecified) | inconclusive [inhibitor, single point] | 
15 | O=C(NC1CCCCC1)c1cc(-c2ccccc2Cl)on1 |  | inactive: -7.1%
16 | O=C(NCCS(=O)(=O)NCc1ccccc1Cl)c1ccccc1 | inconclusive [inhibitor, single point] | 
17 | CCc1cccc2sc(NC(=O)c3ccc(N4C(=O)CCC4=O)cc3)nc12 |  | inactive: -19.9% [at 8.37 µM]
18 | COc1cccc(OCCOc2ccccc2OC(C)C)c1 | inconclusive [inhibitor, partial curve] | 
19 | CCC(=O)N1CCc2cc(S(=O)(=O)Nc3ccccc3C)ccc21 |  | inactive: -2.75%
20 | Cc1cccc(NC(=S)N/N=C2/CCCCc3ccccc32)c1 |  | inactive: -70.5%
21 | COc1cc(/C=N/NC(=O)CN2CCCCC2)ccc1OCc1ccc(Br)cc1 | active: 10 µM | 
22 | CC(C)(C)OC(=O)NCCCCCNC(=O)c1[nH]cnc1C(=O)Nc1nccs1 |  | inactive: -1.35%
23 | CC(C)CC1NC(=O)N(CC(=O)Nc2ccc(OCc3ccccc3)cc2)C1=O (stereo unspecified) | inconclusive [inhibitor, single point] | 
24 | COc1cccc(NC(=O)CN(C)S(=O)(=O)c2ccc3c(c2)CCC(=O)N3)c1 |  | inactive: -8.27%

Row | Structure (SMILES) | Potency | activity change, negative = inhibition
25 | Cc1cc(NC(=O)C(C)SCC(=O)Nc2cc(C(F)(F)F)ccc2N2CCOCC2)no1 (stereo unspecified) | inconclusive [inhibitor, single point] | 
26 | O=C(/C=C/c1cccc([N+](=O)[O-])c1)Nc1cc(C(=O)O)cc(C(=O)O)c1 |  | inactive: 6.62%
27 | CCCc1nnc(NC(=O)CCC(=O)N2CCN(c3ccccc3)CC2)s1 |  | inactive: 8.09%
28 | Cc1ccc(NS(=O)(=O)c2ccc3c(c2)NC(=O)CCS3)c(Br)c1 | inconclusive [inhibitor, single point] | 
29 | CCC(C(=O)Nc1ccc(S(=O)(=O)N(C)C2CCN(C)CC2)cc1)c1ccccc1 (stereo unspecified) | inconclusive [inhibitor, partial curve] | 
30 | CN(c1ccccc1C(=O)Nc1ccc(S(=O)(=O)N2CCOCC2)cc1)S(C)(=O)=O |  | inactive: 2.52%
31 | CN(c1ccccc1)S(=O)(=O)c1ccc(NC(=O)COc2ccccc2)cc1 | inconclusive [inhibitor, single point] | 
32 | Cc1c(C(=O)c2ccc(N(C)C)cc2)c2ccccn2c1CCC#N | inconclusive [inhibitor, single point] | 
33 | CCOC(=O)C1(CC2CCCCO2)CCN(Cc2cc3ccccc3[nH]2)CC1 (stereo unspecified) | inconclusive [inhibitor, single point] | 
34 | O=C(Nc1ccccc1)c1cc([N+](=O)[O-])ccc1N1CCCCC1 | inconclusive [inhibitor, partial curve] | 
35 | O=C(CN1CCOCC1)Nc1ncc(Cc2cccc(Cl)c2Cl)s1 | inconclusive [inhibitor, single point] | 
36 | O=C(Nc1ccncc1)c1ccc2ccccc2c1 | inconclusive [inhibitor, single point] | 
37 | CC(=O)Nc1ccc(C(=O)CSc2ncn(-c3ccccc3)n2)cc1 | inconclusive [inhibitor, single point] | 
38 | C[C@H](CO)N1C[C@H](C)[C@@H](CN(C)Cc2ccncc2)Oc2c(NC(=O)Cc3ccccc3)cccc2C1=O | inconclusive [inhibitor, full curve] | 
39 | CC12CCC(C(=O)NNc3ccccc3)(OC1=O)C2(C)C (stereo unspecified) |  | inactive: 11.4%
40 | Cc1ccc(CCNC(=O)C2CCC(=O)N2Cc2cccnc2)cc1 (stereo unspecified) | inconclusive [inhibitor, single point] | 
41 | Cc1ccc(SCC(=O)c2cc(C)c(OC(=S)N(C)C)c(C)c2)cc1 | active: 11.2 µM | 
42 | Cc1ccccc1CSCCNC(=S)Nc1ccccc1 | inconclusive [inhibitor, partial curve] | 
43 | Cn1c(SCC(=O)NCC2CCCO2)ncc(C(=O)Nc2ccccc2)c1=O (stereo unspecified) | active: 5.01 µM | 
44 | Cc1cccc(Oc2c([N+](=O)[O-])c(=O)n(C)c3ccccc23)c1 | inconclusive [inhibitor, single point] | 
45 | C/C(=N\NC(=S)NC1CCCCC1)c1ccc(O)cc1 | inconclusive [inhibitor, partial curve] | 
46 | O=C(NCCn1cc(SCc2ccc(F)cc2)c2ccccc21)c1ccccc1F | inconclusive [inhibitor, single point] | 
47 | CCOc1cccc(C(=O)NC(=S)Nc2ccc(N3CCN(CC)CC3)cc2)c1 | inconclusive [inhibitor, single point] | 
48 | CCn1nc(NC(=O)c2ccco2)c2cc3ccccc3nc21 | inconclusive [inhibitor, partial curve] | 

Row | Structure (SMILES) | Potency | activity change, negative = inhibition
49 | O=S(=O)(CCN1C=CC(C(F)(F)F)=NCC1)c1ccc(F)cc1 |  | inactive: 21.4%
50 | COc1ccc2sc(-c3ccccc3OC)c(-c3ccc4c(c3)OCCO4)c2c1 | inconclusive [inhibitor, partial curve] | 
51 | O=C(Nc1ccnn1C1CCN(Cc2ccc3nonc3c2)CC1)c1cccc(F)c1 | inconclusive [inhibitor, partial curve] | 
52 | O=C(CSc1nccn(-c2ccc3c(c2)OCCO3)c1=O)Nc1ccccc1 | inconclusive [inhibitor, single point] | 
53 | CC#CCOC(=O)c1c(C)nc2sc3c(c2c1N)CCC(O)C3 (stereo unspecified) | active: 7.08 µM | 
54 | COc1ccc(NS(=O)(=O)c2c(C)cc(C)cc2C)cn1 |  | inactive: 6.65%
55 | CCN(CC)CCNC(=O)c1ccc2c(c1NCCO)C(=O)c1ccccc1C2=O | active: 0.891 µM | 
56 | COc1cc(N)ccc1NC(=O)c1cccs1 | inconclusive [inhibitor, single point] | 
57 | COc1ccc(NC(=O)c2cn(-c3ccccc3)nc2SC)cc1 | inconclusive [inhibitor, single point] | 
58 | O=C(COC(=O)C12CC3CC(CC(Br)(C3)C1)C2)Nc1c(F)cccc1F |  | inactive: 1.53%
59 | N#C/C(=C/c1ccc(N2CCOCC2)o1)C(=O)Nc1ccccc1 | inconclusive [inhibitor, full curve, poor fit] | 
60 | CC(C)(C)c1ccc(Oc2cccc(C3CC(=O)C(C4NCCc5ccccc54)C(=O)C3n3cncn3)c2)cc1 (stereo unspecified) |  | inactive: -2.01%
61 | CN1CCc2cccc3c2C1Cc1ccc(O)c(O)c1-3 (stereo unspecified) |  | inactive: 17.8%
62 | Cc1c(CCOC(=O)c2cc([N+](=O)[O-])cc([N+](=O)[O-])c2)sc[n+]1CC(=O)c1ccccc1 | inconclusive [inhibitor, partial curve] | 
63 | O=C(NC(Nc1cc(C(F)(F)F)ccc1Cl)C(=O)c1ccccc1)c1ccccc1 (stereo unspecified) | inconclusive [inhibitor, full curve, poor fit] | 
64 | CCOc1ccc(CCNC(=O)C2CCN(S(=O)(=O)N3CCC(C)CC3)CC2)cc1OCC | inconclusive [inhibitor, single point] | 
65 | CCCCOc1ccc(C(=O)N2CCN(c3ccc(N4CCOCC4)nn3)CC2)cc1 | inconclusive [inhibitor, single point] | 
66 | COC(=O)CN(C)C(=O)c1cccc(OC2CCN(S(=O)(=O)N(C)C)CC2)c1 |  | inactive: 3.95%
67 | CCOc1ccc(S(=O)(=O)N2CCCCC2)cc1NC(=O)CCc1ccc(OC)cc1 |  | inactive: 0.303%
68 | O=C(Nc1cccc(O)c1)c1noc2c1CCCCC2 |  | inactive: -18%
69 | Cc1nc2cc(NC(=O)c3ccc(Br)s3)ccc2s1 | active: 11.2 µM | 
70 | COc1ccc(NC(=O)N2CCN(c3nc(-c4cccc(OC)c4)cs3)CC2)cc1 | active: 6.31 µM | 
71 | COC(=O)c1ccc(OCC(O)CN(CCO)CC(O)Cn2ccc3ccccc32)cc1 (stereo unspecified) |  | inconclusive: -53.5% [inhibitor]
